Test results taken from PubChem BioAssay AID485294 (National Center for Advancing Translational Sciences (NCATS), 2010).
The whole screen tested about 370,000 compounds, of which about 150 (0.041%) were called active. Inconclusive means that the source gave no clear call. Such entries were picked first, then a sample of the others. Calls follow the shape of the dose curve; as a rule, active = well fitted inhibition curve with a large enough effect; inconclusive = small, poorly fitted or top-dose-only effect; inactive = flat fitted curve, though single readings scatter. No potency is given beside an inconclusive call; the fits are too rough.
Also: nearly all actives have a fitted effect of over 25% in size.
Potency is read from the fitted curve at half-maximal effect; tags tell the direction and shape of the fitted curve.

Each compound was assayed against Beta-lactamase (Escherichia coli (strain K12)) (UniProt P00811) (assay: qHTS Inhibitors of AmpC Beta-Lactamase (assay with detergent)). Settings: AmpC hydrolysis of nitrocefin, absorbance 480 nm, 0.01% Triton; series mostly up to 114 µM.
Sequence of UniProt P00811 (P00811 whole entry, looked up): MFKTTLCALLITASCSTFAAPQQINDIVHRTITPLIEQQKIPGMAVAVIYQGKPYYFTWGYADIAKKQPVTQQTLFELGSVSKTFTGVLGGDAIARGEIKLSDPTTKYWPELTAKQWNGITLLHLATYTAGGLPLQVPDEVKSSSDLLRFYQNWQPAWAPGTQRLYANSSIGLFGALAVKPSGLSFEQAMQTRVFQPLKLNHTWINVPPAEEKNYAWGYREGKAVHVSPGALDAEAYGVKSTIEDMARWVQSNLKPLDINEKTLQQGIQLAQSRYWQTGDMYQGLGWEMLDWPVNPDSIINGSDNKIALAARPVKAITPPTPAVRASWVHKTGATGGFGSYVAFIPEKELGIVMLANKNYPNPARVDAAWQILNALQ
In short: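 20 mM phosphate pH 7.0 + 0.01% (detergent screen) or 0.0001% Triton X-100; 5.3 nM AmpC reagent; cpd preinc 15 min RT; nitrocefin (800 uM stock) to start; A480 q20 s × 4 min; Activity was normalised to no-enzyme and no-compound control wells.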
`CC(=O)N1CCc2c(sc(NC(=O)CCS(=O)(=O)c3ccccc3)c2C#N)C1` was tested, and the Potency was inconclusive [inhibitor, full curve, poor fit]. `CCOc1ccc2oc(C(=O)NCc3nc4ccccc4[nH]3)c(C)c2c1` was tested, and the Potency was inconclusive [inhibitor, full curve, poor fit]. For `Cn1cc(C(=O)Nc2ccc(C#N)cc2)c2ccccc2c1=O`, the Potency was inconclusive [inhibitor, single point]. For `N/C(=N\OCC(=O)Nc1ccccc1)c1nonc1N`, the Potency was inconclusive [inhibitor, partial curve, poor fit]. `Cc1ccc(Sc2ncccc2COC(=O)Nc2ccccc2)cc1` was tested, and the Potency was inconclusive [inhibitor, single point]. With `O=C(O)c1ccc(C2SCC(=O)N2Cc2ccccc2)cc1` (stereo unspecified) the Potency was inconclusive [inhibitor, partial curve, poor fit]. `CCOc1cc(C2Nc3ccccc3C(=O)N2c2ccccc2)ccc1O` (stereo unspecified) was tested, and the Potency was inconclusive [inhibitor, full curve, poor fit]. With `COc1cccc(COC(=O)C2CCN(S(=O)(=O)c3ccc(Cl)cc3)CC2)c1OC` the Potency was inconclusive [inhibitor, full curve, poor fit]. With `COc1cc(S(=O)(=O)Nc2ccc(C)cc2)ccc1N=Cc1c(C)[nH]n(-c2ccc(C)cc2)c1=O` the Potency was inconclusive [inhibitor, full curve, poor fit]. In the case of `O=C(Nc1cccc(C(=O)O)c1)/C(=C\c1ccc2c(c1)OCO2)NC(=O)c1ccc(Br)o1`, the Potency is reported as “inactive”. `Cc1ccc(C(=O)c2ccc([N+](=O)[O-])cc2)c(C)c1` was tested, and the Potency was inconclusive [inhibitor, single point]. `O=C(NNC(=S)Nc1ccccc1Cl)c1ccccc1` was tested, and the Potency was inconclusive [inhibitor, full curve]. For `COc1ccc(NC(=O)[C@@H](NC(=O)N2C[C@H]3C[C@@H](C2)c2cccc(=O)n2C3)C(C)C)cc1OC`, the Potency was inconclusive [inhibitor, full curve, poor fit]. For `Nc1cc2c(cc1O)CCCC2`, the Potency was “inactive”. In the case of `COc1cccc(NC(=O)c2sc3ncn(CC(=O)N4CCN(c5ccccn5)CC4)c(=O)c3c2C)c1`, the Potency is reported as inconclusive [inhibitor, full curve, poor fit]. With `Cc1cc(C)c(S(=O)(=O)n2cc(C(C)C(N)C(=O)O)c3ccccc32)c(C)c1` (stereo unspecified) the Potency was inconclusive [inhibitor, full curve]. `Cc1cc(C)nc(SCc2ccc(C(=O)N/N=C/c3ccccn3)cc2)n1` was tested, and the Potency was inconclusive [inhibitor, full curve, poor fit]. In the case of `O=C(COc1ccccc1C(=O)NCc1ccccn1)Nc1ccc(Br)cc1`, the Potency is reported as inconclusive [inhibitor, partial curve]. For `NNC(=O)CSc1cccc2cccnc12`, the Potency was “inactive”. With `CC(C)C(NS(=O)(=O)c1ccc2c(c1)oc(=O)n2C)C(=O)NCc1ccccc1` (stereo unspecified) the Potency was inconclusive [inhibitor, single point]. For `N#Cc1c(NC(=O)CCn2cnc3ccccc3c2=O)oc(-c2ccccc2)c1-c1ccccc1`, the Potency was inconclusive [inhibitor, full curve]. With `CC(=O)c1ccc(N2CCN(C(=O)c3cc4c(s3)-c3ccccc3OC4)CC2)cc1` the Potency was “inactive”. With `Cc1ccc(C)c(S(=O)(=O)N2CCN(C(=O)c3ccnn3C)CC2)c1` the Potency was inconclusive [inhibitor, single point]. With `CCOC(=O)C(=O)NCc1ccc(/C=C2/N=C(C)C(C(=O)OCC)=C2O)o1` the Potency was “inactive”. With `C#CC(=O)N(c1cc(OC)ccc1OC)C(C(=O)NC1CCCC1)c1cccs1` (stereo unspecified) the Potency was “inactive”. `O=C(CNC(=O)C1CCCCC1)Nc1cc(Cl)ccc1Cl` was tested, and the Potency was “inactive”. In the case of `S=C(NCc1ccncc1)Nc1ccc(Cl)c(Cl)c1`, the Potency is reported as inconclusive [inhibitor, full curve, poor fit]. For `O=[N+]([O-])c1ccccc1S(=O)(=O)N1CCSCC1`, the Potency was inconclusive [inhibitor, single point]. For `CCCCOC(=O)C(C)Oc1ccc(=O)n(-c2ccccc2)n1` (stereo unspecified), the Potency was “inactive”. `O=C(CCS(=O)(=O)c1nc(-c2cccs2)cc(C(F)(F)F)n1)Nc1ccc(F)c(Cl)c1` was tested, and the Potency was inconclusive [inhibitor, single point]. With `Cc1ccc(NC(=O)C2CCN(S(=O)(=O)c3ccc4c(c3)CCCN4C(=O)C3CCC3)CC2)cc1` the Potency was “inactive”. For `CC(=O)c1nn(-c2cccc(Br)c2)cc1C(=O)c1ccc(Cl)cc1`, the Potency was inconclusive [inhibitor, full curve, poor fit]. In the case of `Cn1c(CSCc2ccc(F)cc2)nnc1SCC(=O)Nc1nccs1`, the Potency is reported as inconclusive [inhibitor, full curve]. `Cc1c(S(=O)(=O)N2CCN(C(=O)c3ccco3)CC2)c(=O)n(C)c(=O)n1C` was tested, and the Potency was inconclusive [inhibitor, full curve, poor fit]. `CCn1cc(/C=C(\NC(=O)c2ccccc2Cl)C(=O)N2CCN(C)CC2)c2ccccc21` was tested, and the Potency was inconclusive [inhibitor, full curve, poor fit]. `Cc1ccc(C2C(C#N)=C3N=C(N)c4ccccc4N3C3=C2C(=O)CCC3)cc1` (stereo unspecified) was tested, and the Potency was “inactive”. In the case of `Cc1ccc(C)c(Oc2coc3cc(OCC(=O)Nc4ccccc4C(C)C)ccc3c2=O)c1`, the Potency is reported as inconclusive [inhibitor, full curve, poor fit]. `COC(=O)CSc1nccc(-c2cccs2)n1` was tested, and the Potency was inconclusive [inhibitor, full curve, poor fit]. For `CN(C)c1ccc(/C=N/NC(=O)C2COc3ccccc3O2)o1` (stereo unspecified), the Potency was inconclusive [inhibitor, partial curve]. `CCN(CC)S(=O)(=O)c1ccc(NS(=O)(=O)c2cccs2)cc1` was tested, and the Potency was inconclusive [inhibitor, full curve, poor fit]. For `Cc1cc(C)n(-c2nc3ccccc3c(=O)n2OCC(=O)N(C)C)n1`, the Potency was “inactive”.
